From PubChem BioAssay (NCATS)
Inconclusive means that the source gave no clear call. Such entries were picked first, then a sample of the others. Potencies of inconclusive entries are left out as doubtful fits. More than one record can exist for a structure, and the calls need not agree. Calls of active or inactive are those of the source. Calls follow the shape of the dose curve; as a rule, active = well fitted inhibition curve with a large enough effect; inconclusive = small, poorly fitted or top-dose-only effect; inactive = no such curve, though single readings can be large or run the other way.

Experiment: NS1 protein of Zika virus - qHTS assay to identify small molecule inhibitors in human HEK 293 cells (AID 1347053); also: nearly all actives have a fitted effect of over 55% in size
Details: HEK293 ZIKV MR766 infection, NS1 TR-FRET, 24 h; series mostly up to 46.1 µM
Summary of the method: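 Readout was TR-FRET using paired anti-NS1 antibodies after 24 h infection of HEK 293 cells with ZIKV MR766 (MOI = 0.5). Compound preceded virus by 1 h; reduced signal reflects lower NS1 expression.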
Potency is read from the fitted curve at half-maximal effect; tags tell the direction and shape of the fitted curve.

Structure (SMILES) | Potency
COc1ccc(C=CC(=O)Nc2ccccc2C(=O)O)cc1OC | inconclusive [inhibitor, single point]
CCCCc1oc2ccccc2c1C(=O)c1cc(I)c(OCCN(CC)CC)c(I)c1 | active: 29.6 µM
COc1cc(Oc2ccnc3cc(OC)c(OC)cc23)ccc1NC(=O)NC(C)c1nccs1 (stereo unspecified) | inactive
CCC(=C(CC)c1ccc(O)cc1)c1ccc(O)cc1 | inconclusive [inhibitor, single point]
CCCn1c(=O)c2[nH]c(C34CC5CC3C[C@@H](C5)C4)nc2n(CCC)c1=O | inactive
CCCCCN=C(N)NN=Cc1c[nH]c2ccc(OC)cc12 | inconclusive [inhibitor, full curve]
CCCCN(CCCC)CCC(O)c1cc2c(Cl)cc(Cl)cc2c2cc(C(F)(F)F)ccc12 (stereo unspecified) | inconclusive [inhibitor, single point]
CCCC(=O)O[C@]1(C(=O)CCl)[C@@H](C)C[C@H]2[C@@H]3CCC4=CC(=O)C=C[C@]4(C)[C@@]3(F)C(=O)C[C@@]21C | inconclusive [inhibitor, single point]
COc1ccc(C2CC(c3ccccc3)=NN2c2ccc(S(N)(=O)=O)cc2)cc1 (stereo unspecified) | inconclusive [inhibitor, single point]
C=C(c1ccc(C(=O)O)cc1)c1cc2c(cc1C)C(C)(C)CCC2(C)C | inconclusive [inhibitor, single point]
O=C(CCCN1CCC(O)(c2ccc(Cl)cc2)CC1)c1ccc(F)cc1 | inconclusive [inhibitor, single point]
